Results reported in PubChem BioAssay (NCATS).
“And” between values parts separate entries of the source, which are not always exact repeats. Equal values may be shown once. Inconclusive results, whose numbers are uncertain, are shown with a selection of clear calls. Potencies beside an inconclusive call are fits to weak or partial responses and may not hold up. The source made the active and inactive calls. Calls come from the whole dose curve; as a rule, active = well fitted curve in the direction sought with a large enough effect; inconclusive = small, poorly fitted or top-dose-only effect, or another doubt; inactive = no such curve, though single readings can be large; an effect the other way counts as inactive or inconclusive.

Experiments:
[1] = qHTS for Inhibitors of Plasmodium falciparum (DD2) proliferation (AID 504314);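 for activity, negative = inhibition: parasite DNA measured by SYBR Green fluorescence after red cell lysis; plate controls were DMSO vehicle for no effect and artemisinin wells for full effect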; settings: P. falciparum Dd2 in erythrocytes, SYBR Green growth, 72 h; activity, negative = inhibition: at 6.11 µM (top of the series)
Procedure, shortened: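 Quantitative HTS growth inhibition: SYBR Green I binding to parasite DNA after 72 h drug exposure of infected erythrocytes (0.3% parasitemia, 2.5% hematocrit). Signals normalized per plate to inhibitor and vehicle wells.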

[2] = qHTS for Inhibitors of Plasmodium falciparum (7G8) proliferation (AID 504316); note: nearly all actives have a fitted effect of over 65% in size;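 for activity change, negative = inhibition: 0% = DMSO vehicle and -100% = 0.29 µM artemisinin full kill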; settings: P. falciparum 7G8 in erythrocytes, SYBR Green DNA, 72 h; activity change, negative = inhibition: at 6.7 µM (top of the series)
Procedure, shortened: (§1)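 Erythrocytes infected with P. falciparum line (0.3% parasitemia, 2.5% hematocrit final) incubated with compounds 72 h at 37 °C, 5% CO2; SYBR Green lysis buffer added, fluorescence read next day. Normalized to 0.29 uM artemisinin and DMSO.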

[3] = qHTS for Inhibitors of Plasmodium falciparum (HB3) proliferation (AID 504318); note: nearly all actives have a fitted effect of over 60% in size;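 for activity change, negative = inhibition: 0% = DMSO vehicle and -100% = artemisinin control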; settings: P. falciparum HB3 in erythrocytes, SYBR Green DNA, 72 h; activity change, negative = inhibition: at 7.21 µM (top of the series)
Procedure, shortened: as §1

[4] = qHTS for Inhibitors of Plasmodium falciparum (CP250) proliferation (AID 504320);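 for activity change, negative = inhibition: plate controls were DMSO vehicle for no effect and 0.29 µM artemisinin control for full effect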
Procedure, shortened: as §1
Potency is the fitted concentration of half-maximal effect; tags give direction and shape of the fitted curve.

In the case of `CC1=C[C@@H](C)O[C@@]2(C1)C(=O)Nc1cccc(Br)c12`, the Potency [1] is reported as “inactive”, the Potency [2] is reported as inconclusive: 0.0054 µM [inhibitor, full curve, poor fit] and the Potency [3] is reported as inconclusive: 1.51 µM [inhibitor, partial curve, poor fit].
In the case of `COc1ccc2c(c1)O[C@@H](c1ccc3c(c1)OCO3)[C@H](OC(=O)NCCOc1ccccc1)C2=O`, the Potency [1] is reported as inconclusive: 3780 nM [inhibitor, partial curve, poor fit], the Potency [2] is reported as inconclusive: 1.9 µM [inhibitor, partial curve, poor fit] and the Potency [3] is reported as inconclusive: 1.78 µM [inhibitor, partial curve, poor fit].
With `COC(=O)CCCC1=CC2=C(c3ccccc3)C(=O)C(C)(OC(=O)C3CCCC3)C(=O)C2=CN1Cc1ccc(OC)cc1` (centres undefined) the Potency [1] was inconclusive: 2380 nM [inhibitor, partial curve, poor fit], the Potency [2] was inconclusive: 1.69 µM [inhibitor, single point] and inactive and the Potency [3] was inconclusive: 4.26 µM [inhibitor, single point].
In the case of `COC1=C(C(=O)c2ccccc2)C(=O)[C@@]2(CC=C(C)C)CC(C#N)C[C@@]1(CC=C(C)C)C2=O` (some centres undefined), the Potency [1] is reported as inconclusive: 4240 nM [inhibitor, single point], the Potency [2] is reported as inconclusive: 1.2 µM [inhibitor, single point] and the Potency [3] is reported as inconclusive: 1.51 µM [inhibitor, partial curve, poor fit].
With `COc1ccc([C@]23Cc4ccccc4[C@H](O2)c2c(cc(C)n(Cc4ccccc4)c2=O)O3)cc1` the Potency [1] was inconclusive: 1500 nM [inhibitor, partial curve], the Potency [2] was inconclusive: 4.26 µM [inhibitor, single point] and the Potency [3] was inconclusive: 1.9 µM [inhibitor, single point]. For the same molecule, the Potency [4] was “inactive”.
With `C=CCN1c2ccccc2[C@]23C[C@@H](C(=O)OC)N(S(=O)(=O)c4ccc(C#N)cc4)C2=NC(C(=O)OC)=C(C(=O)OC)[C@H]13` the activity, negative = inhibition [1] was inactive: 5.6% [at 1.12 µM], the Potency [2] was inconclusive: 4.26 µM [inhibitor, partial curve, poor fit] and the Potency [3] was inconclusive: 1.51 µM [inhibitor, partial curve].
For `CCCCC1=CC2=C(c3ccco3)C(=O)C(C)(OC(=O)c3ccc(OC)cc3)C(=O)C2=CN1CCN1CCOCC1` (centres undefined), the Potency [1] was “inactive”, the Potency [2] was “inactive” and the Potency [3] was “inactive”.
For `CC12C=C(C=Cc3ccccc3)C(C)(C1)C(c1ccccc1)CC2=O` (centres undefined), the Potency [1] was inconclusive: 4240 nM [inhibitor, single point], the Potency [2] was inconclusive: 1.69 µM [inhibitor, partial curve, poor fit] and the Potency [3] was inconclusive: 2.62 µM [inhibitor, partial curve].
For `C[C@@H]1CC2=CCCC2[C@]2(O1)C(=O)N(Cc1ccc(F)cc1)c1cccc(Br)c12` (some centres undefined), the Potency [1] was inconclusive: 1690 nM [inhibitor, partial curve], the Potency [2] was inconclusive: 0.338 µM [inhibitor, partial curve, poor fit] and the Potency [3] was inconclusive: 1.69 µM [inhibitor, partial curve]. For the same molecule, the Potency [4] was inconclusive: 2390 nM [inhibitor, single point].
For `Oc1ccc2c(c1-c1c(O)c(Br)cc3c1CCCC3)CCCC2`, the Potency [1] was inconclusive: 4240 nM [inhibitor, partial curve, poor fit], the Potency [2] was inconclusive: 1.69 µM [inhibitor, single point] and the Potency [3] was inconclusive: 1.9 µM [inhibitor, partial curve, poor fit]. The Potency [4] was “inactive”.
For `COC(=O)C=P(c1ccccc1)(c1ccccc1)c1ccccc1`, the Potency [1] was “inactive”, the Potency [2] was “inactive” and the Potency [3] was inconclusive: 1.69 µM [inhibitor, single point].
For `C=CC[C@H]1C(=O)N2[C@@H](C[C@@H](C)[C@@H]2c2ccccc2)[C@@H](CC=C)C(=O)N2[C@H]1C[C@@H](C)[C@@H]2c1ccccc1`, the Potency [1] was inconclusive: 4240 nM [inhibitor, single point], the Potency [2] was inconclusive: 3.01 µM [inhibitor, single point] and the Potency [3] was inconclusive: 1.51 µM [inhibitor, partial curve].
With `COC(=O)CCCC1=CC2=CC(=O)C(C)(OC(=O)c3cccs3)C(=O)C2=CN1CCc1c[nH]c2ccccc12` (centres undefined) the Potency [1] was “inactive”, the Potency [2] was inconclusive: 1.07 µM [inhibitor, partial curve] and the Potency [3] was inconclusive: 4.78 µM [inhibitor, single point] and inconclusive: 4.26 µM [inhibitor, single point].
For `COC(=O)C1=C(C)N(CC2CC2)C(=O)NC1CCc1ccccc1` (centres undefined), the Potency [1] was inconclusive: 3780 nM [inhibitor, partial curve, poor fit] and the Potency [3] was inconclusive: 1.31 µM [inhibitor, partial curve, poor fit].
